Reference: the supplement of paper PMC11125491
± gives the standard deviation of the averaged measurements. Growth of baker's yeast expressing single-residue variants of Pneumocystis jirovecii dihydrofolate reductase in 8.8 or 44 µM methotrexate (about 75% and 90% inhibition of the wild type). Selection coefficient per generation; 0 = like wild type, above 0 = less sensitive, below 0 = more sensitive or loss of function. No active / inactive call per row; the paper calls resistant above 0.220 (8.8 µM) or 0.243 (44 µM) together with a significance test. At 44 µM about 15% of codons end with one read or none, so the lowest values are floors (replicate rank correlation 0.74; 0.94 at 8.8 µM).

B1: UniProt A0EPZ9; numbered along this chain (parent)
chain: MDWQKSLTLIVALTLSRGIGLKNDLPWKLKSDMMFFSRVTSGLLVTRSTGQMNVVLMGRKTWESLPAHSRPLKNRINVVISRQEVLDLGGGAYHARSLDDALALLSQIYDSTSKIQLNRVFVIGGGELCKAAMEHSRLNRIIATVIHNEVDCDVFFPIDFRSSQSCLPWRKQDHSVLEAWVGSKVPQGKINENGFIYEFEMWIRDI

Variants of: B1
Assay: selection coefficient against synonymous wild-type codons (log2 per generation); higher = faster growth than wild type
Details: with Saccharomyces cerevisiae carrying the variant on a plasmid
Protocol: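 Pooled growth of yeast carrying single-residue variants of P. jirovecii dihydrofolate reductase (own DFR1 gene intact), two passages at 30 °C, three cultures, sequenced before and after. Codons with under 15 starting reads are left out; codons of one change are averaged.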

Variant | selection coefficient against synonymous wild-type codons (log2) (methotrexate 8.8 µM) | selection coefficient against synonymous wild-type codons (log2) (methotrexate 44 µM)
L88F | -0.313 ± 0.054 | -0.07 ± 0.12
K184R | -0.132 ± 0.026 | -0.116 ± 0.077
G90Y | -0.215 ± 0.026 | -0.173 ± 0.22
Y109G | -0.0236 ± 0.016 | -0.068 ± 0.13
T46H | 0.035 ± 0.036 | -0.0505 ± 0.097
V78C | -0.528 ± 0.08 | -0.225 ± 0.039
N148H | -0.191 ± 0.072 | -0.295 ± 0.1
G89D | -0.00991 ± 0.058 | -0.0127 ± 0.057
G89V | -0.34 ± 0.053 | -0.197 ± 0.11
M133T | -0.307 ± 0.1 | -0.145 ± 0.047
L72Y | 0.47 ± 0.052 | 0.588 ± 0.077
K60P | -0.0242 ± 0.072 | 0.115 ± 0.11
L21I | -0.0207 ± 0.083 | 0.0833 ± 0.09
E127V | -0.379 ± 0.062 | -0.232 ± 0.12
K28R | -0.0121 ± 0.044 | -0.0741 ± 0.12
K28E | -0.0181 ± 0.036 | -0.0181 ± 0.17
K189R | -0.124 ± 0.045 | -0.141 ± 0.081
K189A | -0.0978 ± 0.028 | -0.108 ± 0.11
K189T | -0.0605 ± 0.094 | -0.0482 ± 0.097
I203R | 0.00454 ± 0.063 | -0.0471 ± 0.13
N139A | -0.255 ± 0.12 | -0.0843 ± 0.18
S163Y | -0.11 ± 0.12 | -0.196 ± 0.072
S163P | -0.00587 ± 0.036 | 0.0741 ± 0.27

Variant | selection coefficient against synonymous wild-type codons (log2) (methotrexate 8.8 µM) | selection coefficient against synonymous wild-type codons (log2) (methotrexate 44 µM)
S163K | 0.00428 ± 0.031 | -0.12 ± 0.092
R161H | 0.0651 ± 0.033 | 0.0239 ± 0.12
R161Y | -0.00342 ± 0.031 | -0.123 ± 0.11
R161G | 0.19 ± 0.093 | 0.207 ± 0.052
S31L | -0.417 ± 0.086 | -0.275 ± 0.14
S31H | 0.109 ± 0.042 | 0.128 ± 0.021
S31T | -0.0861 ± 0.054 | -0.0912 ± 0.11
W180Y | 0.106 ± 0.038 | 0.00799 ± 0.045
L29G | 0.22 ± 0.04 | 0.266 ± 0.07
D24G | -0.133 ± 0.081 | -0.0628 ± 0.13
V120S | -0.715 ± 0.1 | -0.264 ± 0.089
V120P | -0.697 ± 0.027 | -0.193 ± 0.057
V120T | -0.538 ± 0.05 | -0.296 ± 0.027
V120K | -0.844 ± 0.016 | -0.339 ± 0.065
W3C | 0.0397 ± 0.011 | 0.0894 ± 0.059
I10S | 0.313 ± 0.046 | 0.407 ± 0.072
I10A | 0.13 ± 0.036 | 0.223 ± 0.089
A12D | -0.329 ± 0.088 | -0.0751 ± 0.035
K171P | -0.117 ± 0.067 | -0.066 ± 0.1
F36S | -0.126 ± 0.069 | 0.163 ± 0.09
I141F | -0.35 ± 0.057 | -0.34 ± 0.051
I141M | -0.214 ± 0.028 | -0.32 ± 0.088
S165Q | 0.0265 ± 0.028 | -0.0149 ± 0.03

Variant | selection coefficient against synonymous wild-type codons (log2) (methotrexate 8.8 µM) | selection coefficient against synonymous wild-type codons (log2) (methotrexate 44 µM)
S113P | -0.0594 ± 0.083 | 0.116 ± 0.13
S113E | -0.0347 ± 0.051 | -0.0334 ± 0.085
S81E | -0.172 ± 0.057 | 0.179 ± 0.084
S81P | -0.549 ± 0.051 | -0.048 ± 0.061
C129E | 0.365 ± 0.025 | 0.855 ± 0.05
I196F | 0.21 ± 0.04 | 0.853 ± 0.077
K73W | -0.261 ± 0.07 | -0.263 ± 0.2
K73I | -0.205 ± 0.11 | -0.177 ± 0.046
L13Q | 0.575 ± 0.035 | 0.589 ± 0.075
D32N | -0.243 ± 0.28 | 0.0154 ± 0.29
R70W | -0.17 ± 0.043 | -0.0985 ± 0.056
R70M | -0.179 ± 0.098 | -0.222 ± 0.2
L56K | -0.574 ± 0.042 | -0.217 ± 0.15
Q172L | -0.145 ± 0.047 | -0.171 ± 0.088
T49Y | -0.163 ± 0.17 | -0.207 ± 0.029
G125Y | -0.67 ± 0.05 | -0.297 ± 0.028
G125C | -0.48 ± 0.37 | -0.164 ± 0.23
K130A | -0.173 ± 0.039 | -0.165 ± 0.15
K130P | -0.29 ± 0.17 | -0.116 ± 0.14
R75W | -0.681 ± 0.12 | -0.393 ± 0.12
R75Q | -0.647 ± 0.13 | -0.274 ± 0.12
E192D | -0.00218 ± 0.021 | -0.021 ± 0.081
Q4D | 0.0408 ± 0.014 | 0.106 ± 0.036

Variant | selection coefficient against synonymous wild-type codons (log2) (methotrexate 8.8 µM) | selection coefficient against synonymous wild-type codons (log2) (methotrexate 44 µM)
Q4W | -0.373 ± 0.14 | -0.348 ± 0.043
Q4M | 0.345 ± 0.034 | 0.351 ± 0.0076
P71Q | 0.362 ± 0.025 | 0.448 ± 0.023
P71M | 0.293 ± 0.011 | 0.377 ± 0.04
R119G | 0.0529 ± 0.024 | 0.106 ± 0.07
V55Y | -0.676 ± 0.06 | -0.295 ± 0.15
V55G | -0.469 ± 0.15 | -0.264 ± 0.1
V55C | -0.267 ± 0.017 | -0.268 ± 0.043
C166L | 0.00208 ± 0.05 | -0.0362 ± 0.081
C166M | 0.011 ± 0.075 | -0.0718 ± 0.039
V185N | -0.296 ± 0.13 | -0.263 ± 0.14
I80D | -0.708 ± 0.057 | -0.205 ± 0.026
I80V | -0.108 ± 0.024 | -0.112 ± 0.093
F155P | 0.407 ± 0.038 | 0.469 ± 0.026
F155I | 0.184 ± 0.037 | 0.17 ± 0.094
F155D | 0.536 ± 0.039 | 0.576 ± 0.02
F155A | 0.419 ± 0.041 | 0.414 ± 0.032
G182Y | -0.434 ± 0.097 | -0.138 ± 0.019
R82C | -0.309 ± 0.083 | -0.245 ± 0.038
T61P | -0.49 ± 0.072 | -0.23 ± 0.11
G188M | -0.106 ± 0.071 | 0.0656 ± 0.07
K22V | 0.237 ± 0.042 | 0.294 ± 0.035
H94P | -0.669 ± 0.07 | -0.201 ± 0.086

Variant | selection coefficient against synonymous wild-type codons (log2) (methotrexate 8.8 µM) | selection coefficient against synonymous wild-type codons (log2) (methotrexate 44 µM)
V45W | -0.178 ± 0.17 | -0.0423 ± 0.12
V45A | 0.101 ± 0.065 | 0.118 ± 0.16
A92E | -0.182 ± 0.036 | -0.327 ± 0.12
A92T | -0.203 ± 0.025 | -0.0847 ± 0.091
S97T | -0.164 ± 0.044 | 0.107 ± 0.41
S97H | -0.55 ± 0.09 | -0.197 ± 0.16
S97E | -0.792 ± 0.044 | -0.288 ± 0.04
S16R | -0.0671 ± 0.07 | -0.049 ± 0.05
S16H | 0.0654 ± 0.1 | 0.0696 ± 0.12
Q107H | -0.0277 ± 0.044 | -0.129 ± 0.11
L15H | 0.41 ± 0.036 | 0.366 ± 0.092
L15F | 0.134 ± 0.044 | 0.13 ± 0.11
L15P | 0.568 ± 0.12 | 0.623 ± 0.14
V176W | -0.17 ± 0.12 | -0.288 ± 0.13
R17I | -0.165 ± 0.14 | 0.0413 ± 0.14
R17T | 0.123 ± 0.089 | 0.131 ± 0.065
I146W | -0.477 ± 0.077 | -0.378 ± 0.16
M57N | -0.518 ± 0.13 | -0.312 ± 0.079
M57R | -0.48 ± 0.1 | -0.255 ± 0.051
M57Q | -0.517 ± 0.019 | -0.227 ± 0.05
I108C | -0.467 ± 0.14 | -0.146 ± 0.09
S6V | -0.4 ± 0.11 | -0.053 ± 0.21
H68A | -0.102 ± 0.1 | -0.146 ± 0.12
